# According to PubChem BioAssay AID504333 (National Center for Advancing Translational Sciences (NCATS), 2011):
# Among all 360,000 compounds or so, about 16,000 (4.4%) were called active. Inconclusive results, whose numbers are uncertain, are shown with a selection of clear calls. Calls follow the shape of the dose curve; as a rule, active = well fitted inhibition curve with a large enough effect; inconclusive = small, poorly fitted or top-dose-only effect; inactive = no such curve, though single readings can be large or run the other way. Potencies of inconclusive entries are doubtful fits and often do not repeat.
# Target: Bromodomain adjacent to zinc finger domain protein 2B (Homo sapiens) (UniProt Q9UIF8)
# Test: qHTS Assay for Inhibitors of BAZ2B; also: nearly all actives have a fitted effect of over 60% in size
# Conditions: AlphaScreen BAZ2B-H3K14Ac peptide displacement; activity change, negative = inhibition: at 114 µM (top of the series) unless noted
# Outline: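 BAZ2B (50 nM) with biotin-H3(5-23)K14Ac peptide (50 nM) in PBS pH 7.4, 0.01% Tween-20, preformed 30 min, then compound 30 min at room temperature; top concentration 110uM. AlphaScreen streptavidin donor/nickel chelate acceptor beads (10 ug/mL final), 20 min dark, signal read.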
# % is scaled to controls: 0 for no effect and ±100 for the full control effect; potency is read from the fitted curve at half-maximal effect; tags tell the direction and shape of the fitted curve.
# UniProt Q9UIF8, sequence (Q9UIF8 whole entry, looked up, the tested form may be a part): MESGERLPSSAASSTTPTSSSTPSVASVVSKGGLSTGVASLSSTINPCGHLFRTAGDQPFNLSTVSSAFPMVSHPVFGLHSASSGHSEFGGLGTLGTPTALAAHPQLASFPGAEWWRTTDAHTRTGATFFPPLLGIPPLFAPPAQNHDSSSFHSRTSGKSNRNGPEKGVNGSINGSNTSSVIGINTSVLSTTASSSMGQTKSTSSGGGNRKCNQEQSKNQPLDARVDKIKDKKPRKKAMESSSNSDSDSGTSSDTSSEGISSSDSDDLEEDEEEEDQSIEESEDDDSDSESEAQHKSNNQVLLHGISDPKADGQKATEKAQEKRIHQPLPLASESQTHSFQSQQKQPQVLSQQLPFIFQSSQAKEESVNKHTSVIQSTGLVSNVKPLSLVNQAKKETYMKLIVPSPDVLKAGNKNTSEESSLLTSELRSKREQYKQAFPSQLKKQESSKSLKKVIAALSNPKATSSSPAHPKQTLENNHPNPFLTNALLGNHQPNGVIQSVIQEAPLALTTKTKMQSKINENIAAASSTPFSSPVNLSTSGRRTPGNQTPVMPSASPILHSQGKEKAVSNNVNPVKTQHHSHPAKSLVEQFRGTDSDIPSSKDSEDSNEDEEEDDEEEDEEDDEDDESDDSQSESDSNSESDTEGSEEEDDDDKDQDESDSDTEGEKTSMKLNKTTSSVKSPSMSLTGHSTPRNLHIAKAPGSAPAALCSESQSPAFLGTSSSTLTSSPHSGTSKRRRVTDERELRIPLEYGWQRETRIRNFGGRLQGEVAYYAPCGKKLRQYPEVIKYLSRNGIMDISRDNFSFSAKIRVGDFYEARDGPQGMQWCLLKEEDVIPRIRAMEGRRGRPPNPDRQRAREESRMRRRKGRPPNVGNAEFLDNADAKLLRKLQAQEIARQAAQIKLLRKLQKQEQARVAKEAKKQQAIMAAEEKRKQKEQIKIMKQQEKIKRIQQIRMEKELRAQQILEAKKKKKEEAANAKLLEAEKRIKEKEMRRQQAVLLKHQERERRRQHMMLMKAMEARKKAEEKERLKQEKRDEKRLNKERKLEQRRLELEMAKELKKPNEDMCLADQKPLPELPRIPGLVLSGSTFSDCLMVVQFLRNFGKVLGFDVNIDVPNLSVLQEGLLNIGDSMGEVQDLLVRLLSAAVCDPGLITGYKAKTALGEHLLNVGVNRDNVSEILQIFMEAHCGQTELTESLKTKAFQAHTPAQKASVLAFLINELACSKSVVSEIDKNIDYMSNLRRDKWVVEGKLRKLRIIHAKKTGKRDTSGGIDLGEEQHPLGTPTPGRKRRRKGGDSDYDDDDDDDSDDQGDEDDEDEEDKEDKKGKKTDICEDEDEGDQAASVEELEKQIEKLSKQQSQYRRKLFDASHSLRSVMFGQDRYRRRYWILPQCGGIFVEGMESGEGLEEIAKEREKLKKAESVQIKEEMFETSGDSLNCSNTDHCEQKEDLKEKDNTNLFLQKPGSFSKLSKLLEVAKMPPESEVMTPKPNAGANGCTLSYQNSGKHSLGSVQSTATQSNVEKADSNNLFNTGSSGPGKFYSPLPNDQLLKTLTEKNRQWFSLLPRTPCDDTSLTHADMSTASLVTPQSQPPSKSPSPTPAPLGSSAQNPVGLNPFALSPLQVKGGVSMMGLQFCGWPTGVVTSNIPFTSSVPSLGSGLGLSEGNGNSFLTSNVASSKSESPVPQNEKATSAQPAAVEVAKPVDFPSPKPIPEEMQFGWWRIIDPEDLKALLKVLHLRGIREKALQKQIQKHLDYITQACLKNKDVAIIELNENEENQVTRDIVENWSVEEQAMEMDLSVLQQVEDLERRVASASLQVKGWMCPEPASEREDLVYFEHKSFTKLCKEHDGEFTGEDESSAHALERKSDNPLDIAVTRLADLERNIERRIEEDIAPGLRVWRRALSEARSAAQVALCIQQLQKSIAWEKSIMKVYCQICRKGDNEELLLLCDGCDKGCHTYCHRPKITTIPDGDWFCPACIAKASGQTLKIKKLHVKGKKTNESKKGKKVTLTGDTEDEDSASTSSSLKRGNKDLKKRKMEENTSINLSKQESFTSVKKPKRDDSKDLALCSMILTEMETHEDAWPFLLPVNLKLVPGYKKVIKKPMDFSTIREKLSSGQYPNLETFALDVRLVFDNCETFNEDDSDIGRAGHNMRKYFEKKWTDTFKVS
SMILES,Potency,"activity change, negative = inhibition"
COc1ccc(NC(=O)C(Cc2ccccc2)n2cccc2)cc1 (configuration not stated),"inconclusive: 44.7 µM [inhibitor, partial curve]",
Cc1cc(SCC(=O)N/N=C/c2ccc(O)c(O)c2)nc2ccccc12,active: 44.7 µM,
Cc1csc(=Nc2ccccc2)n1CCCN1CCCC1=O,"inconclusive: 79.4 µM [inhibitor, single point]",
O=c1cc(CN2CCCCCC2)nc2sccn12,"inconclusive: 89.1 µM [inhibitor, single point]",
O=C(Nc1ccccn1)Nc1cccs1,"inconclusive: 7.08 µM [inhibitor, single point]",
O=C1c2nc3cc(-c4ccco4)[nH]n3c(=O)c2CN1Cc1ccccc1,"inconclusive: 50.1 µM [inhibitor, partial curve]",
c1cncc(CNc2ncnc3ccc(-c4ccoc4)cc23)c1,"inconclusive: 50.1 µM [inhibitor, partial curve]",
O=C(Nc1ccccc1)C1=C[C@@H](C2CC2)C[C@@H](OCCCCO)O1,,inactive: -10.4%
CCOc1ccc(CNC(=O)CN2C(=O)C(c3ccccc3)Oc3cccnc32)cc1 (configuration not stated),active: 70.8 µM,
N#Cc1nc(COc2ccccc2)oc1N1CCCCC1,"inconclusive: 44.7 µM [inhibitor, partial curve]",
CC(=O)c1ccc2c(c1)C1C=CCC1C(c1ccc(S(=O)(=O)N3CCOCC3)cc1)N2 (configuration not stated),"inconclusive: 89.1 µM [inhibitor, single point]",
O=C(CN1CCSC1=O)Nc1ccc(N2CCOCC2)cc1,,inactive: 6.32%
O=C(CN1CCCCCC1)N/N=C/c1cccc(Cl)c1Cl,active: 56.2 µM,
CCOC(=O)c1c(NC(=O)c2ccc(S(=O)(=O)N3CCOCC3)cc2)sc2c1CCN(C)C2,"inconclusive: 89.1 µM [inhibitor, single point]",
O=C(CCn1c(=O)c2cccn2c2cccnc21)N1CCN(c2ccc(F)cc2)CC1,"inconclusive: 56.2 µM [inhibitor, partial curve]",
c1csc(-c2ncc3ccccn23)c1,,inactive: 1.81%
COc1ccc(NC(=O)c2cc(-c3ccccc3)nc3c2cnn3C(C)C)c(OC)c1,,inactive: -6.61%
COc1cc(/C=N/N(CCO)C2=NS(=O)(=O)c3ccccc32)cc(OC)c1OC,,inactive: -9.98%
CCS(=O)(=O)N1CCc2cc(C(=O)Nc3cc([N+](=O)[O-])ccc3C)ccc21,"inconclusive: 70.8 µM [inhibitor, partial curve]",
COc1ccc(CCn2c(C)cc(C(=O)COC(=O)c3ccc(NC(=O)CC#N)cc3)c2C)cc1,"inconclusive: 79.4 µM [inhibitor, single point]",
CCN(CC)c1ccc(/C=C/c2ccc3ccc(OC)cc3[n+]2CC)cc1,active: 39.8 µM,
C/C=C/COC(=O)c1[nH]c2c(c1C)C(=O)CC(c1ccco1)C2 (configuration not stated),active: 50.1 µM,
COc1ccc(CC(C)N2CCN(c3cccc(C(F)(F)F)c3)CC2)cc1OC (configuration not stated),"inconclusive: 89.1 µM [inhibitor, single point]",
COc1ccc(N2CCN(C(c3ccc4ncccc4c3)c3nnnn3C(C)(C)C)CC2)cc1 (configuration not stated),active: 35.5 µM,

SMILES,Potency,"activity change, negative = inhibition"
COc1cccc(OC)c1OCCCN1CCC(Cc2ccccc2)CC1,,inactive: -35.1%
Cn1cccc1Cc1nnc(SCC(=O)N2CCOCC2)n1-c1ccc(F)cc1,,inactive: -27.2%
CN1CCN(c2ccc(NC(=O)C(C)(c3ccccc3)c3ccccc3)cc2)CC1,"inconclusive: 70.8 µM [inhibitor, partial curve]",
CCCCn1c(SCC(=O)Nc2cccc(OC)c2)nc2ccc(N3CCOCC3)cc2c1=O,"inconclusive: 70.8 µM [inhibitor, single point]",
CCN(CC)c1ccc(NS(=O)(=O)c2cn(C)c(=O)n(C)c2=O)c(C)c1,"inconclusive: 79.4 µM [inhibitor, single point]",
CCc1ccc(NC(=S)N(Cc2cccnc2)Cc2ccco2)cc1,"inconclusive: 79.4 µM [inhibitor, single point]",
COc1ccc(O)c(CN2CCCC(N3CCc4ccccc4C3)C2)c1 (configuration not stated),"inconclusive: 70.8 µM [inhibitor, single point]",
Cc1ccc(SCCCn2cncn2)cc1,"inconclusive: 89.1 µM [inhibitor, single point]",
COc1ccc(NC(=O)CSc2nnc(Cc3cccn3C)n2-c2ccc(C)cc2)cc1OC,"inconclusive: 44.7 µM [inhibitor, partial curve]",
Cc1c(Cl)cccc1NC(=O)Nc1nnc(N(C)C2CCCCC2)s1,"inconclusive: 89.1 µM [inhibitor, single point]",
COc1ccc(C(=O)/C(=C\c2ccco2)N2C=CC=CC2=C(C#N)C#N)cc1,,inactive: -12.7%
COc1ccccc1CNC(=O)[C@@H](NC(=O)C1CCN(C(=O)[C@@H]2CCCN2)CC1)C(C)C,"inconclusive: 89.1 µM [inhibitor, single point]",
O=C(c1ccco1)N1CCN(C(=O)c2ccc(-c3cccc(C(F)(F)F)c3)o2)CC1,"inconclusive: 89.1 µM [inhibitor, single point]",
O=C(Cn1c(=O)sc2ccccc21)Nc1ccc(S(=O)(=O)N2CCCC2)cc1,,inactive: -2.63%
CCN(CC)c1ccc(/C=N/NC(=S)NC)c(O)c1,active: 39.8 µM,
O=C(NCCN1CCOCC1)c1cc([N+](=O)[O-])ccc1Cl,"inconclusive: 100 µM [inhibitor, partial curve]",
COc1ccc(NC(=S)NC(=O)/C=C/c2ccco2)cc1,"inconclusive: 89.1 µM [inhibitor, single point]",
COc1ccc(OC)c(NC(=O)CSc2c3c(nc4cc(Cl)ccc24)CCCC3)c1,"inconclusive: 25.1 µM [inhibitor, full curve]",
O=C(COC(=O)CCc1nc2ccccc2n1-c1ccccc1)Nc1ccc(N2CCCCC2)cc1,"inconclusive: 22.4 µM [inhibitor, full curve]",
CCN(CC)c1ccc(C(=O)Nc2ccccc2)cc1[N+](=O)[O-],"inconclusive: 50.1 µM [inhibitor, partial curve]",
CCNC(=S)N/N=C(\C)c1ccc2c(c1)OCCO2,"inconclusive: 44.7 µM [inhibitor, partial curve]",
COc1ccccc1NC(=O)/C=C\c1ccco1,"inconclusive: 89.1 µM [inhibitor, single point]",
CCOC(=O)c1ccc(N=c2scc(C)n2CC)cc1,active: 39.8 µM,
Cc1cc(C(=O)COC(=O)/C=C/c2cccc(Br)c2)c(C)n1C,"inconclusive: 35.5 µM [inhibitor, partial curve]",

SMILES,Potency,"activity change, negative = inhibition"
CCn1ncc(/C=N\NC(=O)c2ccc3c(c2)c(C)c(C)n3Cc2ccccc2)c1C,"inconclusive: 39.8 µM [inhibitor, full curve]",
CCN(CC)C(=O)CSC(Nc1cccc(F)c1)=C(C#N)C#N,"inconclusive: 56.2 µM [inhibitor, partial curve]",
C(=N\N=C\c1ccccn1)/c1ccccn1,active: 50.1 µM,
COc1ccc(Cc2nc(C(=O)Nc3ccc(Cl)cc3)cs2)cc1,,inactive: 18.8%
O=[N+]([O-])c1cccc(S(=O)(=O)Nc2nc3ccccc3nc2Nc2cccc(S(=O)(=O)N3CCCCC3)c2)c1,"inconclusive: 89.1 µM [inhibitor, single point]",
CCN1CCSc2ccc(C(=O)NCc3ccc(F)cc3)cc21,"inconclusive: 28.2 µM [inhibitor, single point]",
CCCCNC(=O)c1cc(-c2cccnc2)nc2ccc(S(=O)(=O)NCCCC)cc12,,inactive: 6.49%
COc1ccc(C(CNC(=O)c2cccc(NC(=O)c3cccs3)c2)N2CCCC2)cc1 (configuration not stated),,inactive: 1.99%
O=C(COC(=O)CCC1CCCC1)Nc1cccc(S(=O)(=O)N2CCOCC2)c1,,inactive: 4.77%
COc1cccc(Nc2nc(-c3cccc(N4C(=O)c5ccccc5C4=O)c3)cs2)c1,"inconclusive: 89.1 µM [inhibitor, single point]",
O=C(O)c1ccc(-c2ccc(/C=C3\NC(=O)N(Cc4ccc(Cl)cc4)C3=O)o2)cc1Cl,active: 22.4 µM,
COc1cc(NS(=O)(=O)c2cccc3nsnc23)cc(OC)c1,active: 56.2 µM,
Cc1ccc(NC(=O)CN2C(=O)C(c3ccc(C)cc3)=NC23CCCCCC3)cc1,,inactive: 0.0497%
COc1ccc2c(c1)c(=O)c(S(=O)(=O)c1ccc(Cl)cc1)cn2Cc1cc(C)ccc1C,,inactive: -4.02%
COc1cccc(CN(C)C(=O)c2sccc2-c2ccccc2)c1OC,,inactive: -12.9%
COc1ccc([N+](=O)[O-])cc1N(CC(=O)Nc1ccccc1C(=O)NC(C)C)S(C)(=O)=O,,inactive: -1.99%
CCCCN(Cc1cc2ccccc2[nH]c1=O)C(=O)c1ccccn1,"inconclusive: 89.1 µM [inhibitor, single point]",
Cc1cc(C)cc(NC(=O)Cn2nc(N3CCN(c4ccccc4)CC3)ccc2=O)c1,"inconclusive: 31.6 µM [inhibitor, full curve]",
O=S(=O)(c1cccc2nsnc12)N1CCN(c2ccccc2F)CC1,"inconclusive: 39.8 µM [inhibitor, partial curve]",
COC(=O)c1c(-c2cccc(C)c2)csc1N,"inconclusive: 89.1 µM [inhibitor, single point]",
Cc1c(CNC(C)CCc2ccccc2)c(C(=O)O)c(C)n1Cc1ccc(F)cc1 (configuration not stated),,inactive: 0.957%
Cc1onc(-c2ccccc2Cl)c1C(=O)Oc1ccccc1F,,inactive: 112%
CC(C)(C)OC(=O)N1CCC(N2CCN(Cc3ccccc3)C(=O)C2=O)CC1,,inactive: 0.622%
CCN1CCN(CCNC(=O)c2ccc3c(c2)NC(=O)/C(=C\c2ccc(OC)c(OC)c2)S3)CC1,"inconclusive: 25.1 µM [inhibitor, full curve]",
